Assay results published in the supplement of paper PMC4466236.
In all, about 33,000 sequences were measured (“E-score (dimensionless, -0.5 to 0.5)”: median about -0.058, highest 2% from about 0.35 on). The list shows a part of the results.

Each sequence was assayed on MvaT (assay: PBM 8-mer E-score (mean of HK and ME arrays) (E-score (dimensionless, -0.5 to 0.5)); higher = stronger relative binding preference; most listed sequences are background and not binding sites).
How it was run: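 Reported values are rank-based E-scores, taken as the mean of two universal arrays and parsed with a custom script. Each 8-mer score falls between -0.5 and 0.5. The arrays, ME and HK, were double-stranded 60-mers with a constant 25-mer primer region and a variable 35-mer region covering all 8-mers. They were probed, by an earlier protocol, with full-length P. aeruginosa MvaT carrying an N-terminal glutathione S-transferase fusion.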

Row | Sequence | PBM 8-mer E-score
1 | AAGTTCAA | 0.398
2 | AATCTCCC | -0.126
3 | CTATAAAG | 0.0669
4 | GATTTGCC | 0.0159
5 | ATAGCTAG | -0.054
6 | CGAGAGGA | -0.212
7 | GTCAAGGA | -0.0943
8 | GCTAACCC | -0.198
9 | CCCAGCAA | -0.107
10 | AGTTGACC | 0.0343
11 | CCAGAGAC | -0.0283
12 | GATTTCTA | 0.00839
13 | CATTGCAG | -0.114
14 | CGACGGTA | -0.063
15 | AATGCGCT | 0.0594
16 | ACGAATGG | -0.099
17 | CAACGCTA | -0.173
18 | CTTTGGGC | -0.209
19 | CGCAACCA | -0.0649
20 | ATTCGGTA | 0.108
21 | GACTCATC | 0.00578
22 | CAGGTGCC | -0.397
23 | ACGCACGG | -0.17
24 | AAAGAAGT | 0.286
25 | ACTGAGCA | -0.286

Row | Sequence | PBM 8-mer E-score
26 | CAACTTGA | 0.122
27 | ATGGGGGA | -0.204
28 | GTCGATAA | 0.14
29 | AGATGGAC | -0.18
30 | ACACAGCT | -0.0991
31 | TAGGTGCA | -0.0271
32 | CCAACAAA | 0.14
33 | GAAGATTA | 0.282
34 | AACGAATT | 0.285
35 | TCATCACA | -0.0864
36 | AAACCTAA | 0.0741
37 | ACAGGAAG | -0.0109
38 | GAAGAACA | 0.0478
39 | AAGAACCA | -0.00894
40 | AATACGCT | 0.0617
41 | AATTCAGT | 0.203
42 | CAGGGAAC | -0.181
43 | TGCGACCA | -0.185
44 | GGCTCCGA | -0.207
45 | AAATGTGC | 0.076
46 | TCTCGGAA | -0.00286
47 | AATTAAGG | 0.37
48 | CATTCGAG | -0.124
49 | CGTGCAGA | -0.175
50 | CCGTGTGA | -0.199

Row | Sequence | PBM 8-mer E-score
51 | AGCCAAAG | -0.214
52 | ATTCGGAC | -0.172
53 | GGCACCAA | 0.0494
54 | GATGTAGA | 0.0574
55 | GGTCTACA | -0.0706
56 | AAAGCTCG | -0.0433
57 | GTAAATGA | 0.222
58 | AACGCAAC | 0.136
59 | ACTAATAT | 0.407
60 | ATCGGTCG | -0.163
61 | CGGGACAA | -0.0691
62 | AATTACAT | 0.327
63 | GGTCACTA | -0.322
64 | GTTGGTGA | -0.0719
65 | ATTTGAGG | 0.0579
66 | ACATGAAA | 0.205
67 | CATATGGC | -0.0576
68 | CAGATGGC | -0.333
69 | CCAGAACG | -0.0882
70 | ACCGGTCA | -0.0672
71 | ATCGCCCG | -0.113
72 | AGCAGGCT | -0.175
73 | AATTGCCC | 0.166
74 | CTGACTTA | 0.23
75 | ACTTCTCT | 0.161

Row | Sequence | PBM 8-mer E-score
76 | ACTGTCAA | 0.101
77 | ATAGAGCG | 0.0311
78 | CTTGAGTC | -0.108
79 | ATGGTGCA | 0.0587
80 | CTTACATC | 0.0502
81 | GAGACGGA | -0.227
82 | TACCGTGA | -0.0697
83 | CAGCTGTA | -0.11
84 | CACCGGTA | -0.107
85 | TATTCGAA | 0.308
86 | AATGTACT | 0.207
87 | CTAGTCCC | -0.241
88 | TGACGGCA | -0.21
89 | CAACAGAC | -0.0196
90 | CAGAAAAC | 0.0433
91 | GTCAACAC | 0.0224
92 | ACGGCTCG | -0.135
93 | GGTACACC | -0.146
94 | AATAGAAT | 0.292
95 | ATCACTAG | -0.00249
96 | CCATCGTC | -0.16
97 | CACTGGTA | -0.126
98 | GTACGCAC | -0.088
99 | GAGTCCAA | -0.0567
100 | AATTGCTC | 0.0445

Row | Sequence | PBM 8-mer E-score
101 | ACTGATCA | -0.0902
102 | ATGACCGC | -0.166
103 | CTTTCCGA | -0.0238
104 | CGCGAACA | -0.0487
105 | CATCGCAG | -0.137
106 | GCCGTCCA | -0.163
107 | AGACGCTG | -0.127
108 | GGGTGTTA | 0.0651
109 | CCGCTTTA | -0.00314
110 | GCCCGAAA | -0.0858
111 | ATAGATTA | 0.256
112 | AACGACAA | 0.186
113 | AAATGATG | 0.127
114 | GACGGAGC | -0.217
115 | ACAATCAA | 0.21
116 | CCCTAGCG | -0.293
117 | AATGCTCA | -0.000671
118 | CCGTTATC | 0.0929
119 | AGCGAAGG | -0.172
120 | CTCCCTAA | -0.204
121 | CACATTCG | -0.104
122 | ATTACCGA | 0.0931
123 | AGTCCACG | -0.2
124 | ATCGGTGA | -0.0992
125 | AGATTATC | 0.255

Row | Sequence | PBM 8-mer E-score
126 | CACGGGTC | -0.226
127 | CGCCCCTC | -0.202
128 | GGATTCCA | -0.172
129 | GACGGTAC | -0.169
130 | CACCATGA | -0.146
131 | ATCACATA | 0.198
132 | CAGATCTA | -0.0186
133 | GATGAGCC | -0.34
134 | ATGATAAC | 0.178
135 | GGCTTCCA | -0.217
136 | ACAACGTC | -0.207
137 | ATGCAACG | 0.0758
138 | AGGTATGA | 0.12
139 | CAACCATA | 0.0988
140 | CTCAGTCC | -0.348
141 | CGCGTGCA | -0.0926
142 | CGAATCAA | 0.0229
143 | CAGCTATA | 0.205
144 | GCGTAAGC | -0.291
145 | CCGTGTAG | -0.151
146 | ATGCATAG | -0.0132
147 | CGCTAAGA | -0.0481
148 | GCCTCTAC | -0.193
149 | GAAGCGCA | -0.0875
150 | AGCCCTTA | -0.174

Row | Sequence | PBM 8-mer E-score
151 | GTCGTAAC | -0.0622
152 | ACCGATAA | 0.168
153 | AGGGTCAA | -0.196
154 | CCAGCAGC | -0.187
155 | ATAAGTTA | 0.441
156 | GGTAATAC | 0.249
157 | AGCTCTAC | -0.218
158 | ACTAGCAG | -0.0293
159 | CTGTAGTC | 0.0136
160 | CCGAGAAA | 0.014
161 | ATGCTGCC | -0.046
162 | CCTTGCCA | -0.127
163 | ATACTAAG | 0.272
164 | GAATTCCC | 0.0328
165 | AGTGTCGG | -0.00106
166 | CCTGTACG | -0.125
167 | CAATCGGA | -0.0769
168 | CACGTCGG | -0.201
169 | CACGCCAA | 0.0357
170 | ACGTCAGT | -0.127
171 | GACGTATA | 0.155
172 | AGTGGTTC | -0.0509
